The source gives no read counts; variants with many changes may rest on few reads.

In the RNAGym collection of RNA variant scans (doi:10.7554/elife.90254) one finds self-cleavage data, which are given here for 34 variants.

The labels stand for the following.
B1: LINE1-mini (parent)
chain: GGCAGAGCUCAACACAGCGUGGCAAAGUGGCUGUGGCUAGACUGCC

The variants in this data set derive from B1. In words: self-cleavage, relative activity (ratio to wild type); higher = more cleavage; in vitro, sequencing; the parent is a self-cleaving ribozyme.
In the case of GGCAGAGCUCAACACAGCGUGGCAAAGUGGCUGUGGUUGGACUGCA [C37U A39G C46A], the self-cleavage worked out at 0.01.
For the variant GGCAGAGCUCAACACAGCGUGGCAAAGUGGCUGUGGCUUGUCUACC [A39U A41U G44A], the self-cleavage was found to be 0.18.
In the case of GGCAGAGCUCAACACAGCGUGGCAAAGUGGCUGUGGCUGAGCUGCC [A39G G40A A41G], the self-cleavage is 0.01.
In the case of GGCAGAGCUCAACACAGCGUGGCAAAGUGGCUGUGGCUCGCCUGCA [A39C A41C C46A], the self-cleavage was found to be 0.06.
Under GGCAGAGCUCAACACAGCGUGGCAAAGUGGCUGUGGGAACACUGCC [C37G U38A G40C] stands 0.02; under GGCAGAGCUCAACACAGCGUGGCAAAGUGGCUGUGGCCAGACGCCC [U38C U43G G44C], 0.07.
With GGCAGAGCUCAACACAGCGUGGCAAAGUGGCUGUGGCUAGAAAGCG [C42A U43A C46G], the self-cleavage is 0.11.
GGCAGAGCUCAACACAGCGUGGCAAAGUGGCUGUGGCAAGAGUUCC [U38A C42G G44U]: the self-cleavage came to 0.
Take GGCAGAGCUCAACACAGCGUGGCAAAGUGGCUGUGGAUAGACUCCU [C37A G44C C46U]: the self-cleavage is 0.1.
As for GGCAGAGCUCAACACAGCGUGGCAAAGUGGCUGUGGUUAGACUGUU [C37U C45U C46U], the self-cleavage came out at 0.04.
As to GGCAGAGCUCAACACAGCGUGGCAAAGUGGCUGUGGUUAGAGUACC [C37U C42G G44A], the self-cleavage is 0.04.
GGCAGAGCUCAACACAGCGUGGCAAAGUGGCUGUGGCAAGAAUGAC [U38A C42A C45A]: the self-cleavage came to 0.14.
Consider GGCAGAGCUCAACACAGCGUGGCAAAGUGGCUGUGGACAGAAUGCC [C37A U38C C42A], for which the self-cleavage is 0.03.
For the variant GGCAGAGCUCAACACAGCGUGGCAAAGUGGCUGUGGCUACAACGCC [G40C C42A U43C], the self-cleavage came out at 0.01.
For GGCAGAGCUCAACACAGCGUGGCAAAGUGGCUGUGGGUACACUUCC [C37G G40C G44U] the value was 0.04; for GGCAGAGCUCAACACAGCGUGGCAAAGUGGCUGUGGCUAGGCUACA [A41G G44A C46A], 0.04.
As for GGCAGAGCUCAACACAGCGUGGCAAAGUGGCUGUGGCUAUAGUCCC [G40U C42G G44C], the self-cleavage was found to be 0.04.
With GGCAGAGCUCAACACAGCGUGGCAAAGUGGCUGUGGUGAGACUGAC [C37U U38G C45A], the self-cleavage was 0.01.
Take GGCAGAGCUCAACACAGCGUGGCAAAGUGGCUGUGGUUAGUCGGCC [C37U A41U U43G]: the self-cleavage was found to be 0.04.
Under GGCAGAGCUCAACACAGCGUGGCAAAGUGGCUGUGGCUAGACUUGU [G44U C45G C46U] stands 0.04; under GGCAGAGCUCAACACAGCGUGGCAAAGUGGCUGUGGCGGGACUGCG [U38G A39G C46G], 0.01.
As to GGCAGAGCUCAACACAGCGUGGCAAAGUGGCUGUGGCUUUACUGUC [A39U G40U C45U], the self-cleavage came out at 0.21.
As to GGCAGAGCUCAACACAGCGUGGCAAAGUGGCUGUGGCAAGACGGAC [U38A U43G C45A], the self-cleavage was determined as 0.
Take GGCAGAGCUCAACACAGCGUGGCAAAGUGGCUGUGGCAUGCCUGAC [U38A A39U A41C C45A]: the self-cleavage is 0.01.
GGCAGAGCUCAACACAGCGUGGCAAAGUGGCUGUGGAUAGACGCCC [C37A U43G G44C]: the self-cleavage worked out at 0.04.
Turning to GGCAGAGCUCAACACAGCGUGGCAAAGUGGCUGUGGCUAGAAUGAG [C42A C45A C46G], the self-cleavage was 0.06.
For the variant GGCAGAGCUCAACACAGCGUGGCAAAGUGGCUGUGGCUGGACUUAC [A39G G44U C45A], the self-cleavage is 0.03.
Under GGCAGAGCUCAACACAGCGUGGCAAAGUGGCUGUGGCUAUCCUGCG [G40U A41C C46G] stands 0.11; under GGCAGAGCUCAACACAGCGUGGCAAAGUGGCUGUGGGUAGACCGCA [C37G U43C C46A], 0.15; under GGCAGAGCUCAACACAGCGUGGCAAAGUGGCUGUGGGUAGACCGCG [C37G U43C C46G], 0.02.
In the case of GGCAGAGCUCAACACAGCGUGGCAAAGUGGCUGUGGCUACACGGUC [G40C U43G C45U], the self-cleavage was 0.07.
For the variant GGCAGAGCUCAACACAGCGUGGCAAAGUGGCUGUGGCUAGCCCCCC [A41C U43C G44C], the self-cleavage was 0.05.
Under GGCAGAGCUCAACACAGCGUGGCAAAGUGGCUGUGGCUAGAUUGUA [C42U C45U C46A] stands 0.03; under GGCAGAGCUCAACACAGCGUGGCAAAGUGGCUGUGGGUAGAAUGCU [C37G C42A C46U], 0.12.
